Results from the supplement of paper PMC8728848.
Some of the results follow.

Tests used:
Experiment in all cases: glycan array binding signal (z-score within array); higher = stronger binding
Conditions in all cases: glycan notation: IUPAC condensed, linker removed
[1] = biological target: Gal(b1-4)GlcNAc(b1-2)[Gal(b1-4)GlcNAc(b1-6)]Man(a1-6)[Gal(b1-4)GlcNAc(b1-2)Man(a1-3)]Man(b1-4)GlcNAc(b1-4)[Fuc(a1-6)]GlcNAc
Method in brief: (§1)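 Glycan array binding is given as a within-array Z-score, which can be read as non-binding when negative. The arrays, 3228 of them, came from the Consortium for Functional Glycomics database and were retained only where the protein sequence was available. Z-scores were averaged across arrays of the same protein sequence at different concentrations or buffers and across linkers.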

[2] = biological target: Gal(b1-4)GlcNAc(b1-2)[Gal(b1-4)GlcNAc(b1-6)]Man(a1-6)[GlcNAc(b1-4)][Gal(b1-4)GlcNAc(b1-2)Man(a1-3)]Man(b1-4)GlcNAc(b1-4)GlcNAc
Method in brief: as §1

[3] = biological target: Gal(b1-4)GlcNAc(b1-2)[Gal(b1-4)GlcNAc(b1-6)]Man(a1-6)[GlcNAc(b1-4)][Gal(b1-4)GlcNAc(b1-2)[Gal(b1-4)GlcNAc(b1-4)]Man(a1-3)]Man(b1-4)GlcNAc(b1-4)[Fuc(a1-6)]GlcNAc
Method in brief: as §1

[4] = biological target: Gal(b1-4)GlcNAc(b1-3)Gal(b1-3)GalNAc
Method in brief: as §1

[5] = biological target: Gal(b1-4)GlcNAc(b1-3)Gal(b1-3)GlcNAc
Method in brief: as §1

[6] = biological target: Gal(b1-4)GlcNAc(b1-3)Gal(b1-4)Glc
Method in brief: as §1

[7] = biological target: Gal(b1-4)GlcNAc(b1-3)Gal(b1-4)GlcNAc
Method in brief: as §1

[8] = biological target: Gal(b1-4)GlcNAc(b1-3)Gal(b1-4)GlcNAc(b1-2)Man(a1-3)[Gal(b1-4)GlcNAc(b1-3)Gal(b1-4)GlcNAc(b1-2)Man(a1-6)]Man(b1-4)GlcNAc(b1-4)GlcNAc
Method in brief: as §1

[9] = biological target: Gal(b1-4)GlcNAc(b1-3)Gal(b1-4)GlcNAc(b1-2)Man(a1-3)[Gal(b1-4)GlcNAc(b1-3)Gal(b1-4)GlcNAc(b1-2)Man(a1-6)]Man(b1-4)GlcNAc(b1-4)[Fuc(a1-6)]GlcNAc
Method in brief: as §1

[10] = biological target: Gal(b1-4)GlcNAc(b1-3)Gal(b1-4)GlcNAc(b1-2)[Gal(b1-4)GlcNAc(b1-3)Gal(b1-4)GlcNAc(b1-6)]Man(a1-6)[Gal(b1-4)GlcNAc(b1-3)Gal(b1-4)GlcNAc(b1-2)Man(a1-3)]Man(b1-4)GlcNAc(b1-4)GlcNAc
Method in brief: as §1

[11] = biological target: Gal(b1-4)GlcNAc(b1-3)Gal(b1-4)GlcNAc(b1-2)[Gal(b1-4)GlcNAc(b1-3)Gal(b1-4)GlcNAc(b1-6)]Man(a1-6)[Gal(b1-4)GlcNAc(b1-3)Gal(b1-4)GlcNAc(b1-2)Man(a1-3)]Man(b1-4)GlcNAc(b1-4)[Fuc(a1-6)]GlcNAc
Method in brief: as §1

[12] = biological target: Gal(b1-4)GlcNAc(b1-3)Gal(b1-4)GlcNAc(b1-3)Gal(b1-4)GlcNAc
Method in brief: as §1

[13] = biological target: Gal(b1-4)GlcNAc(b1-3)Gal(b1-4)GlcNAc(b1-3)Gal(b1-4)GlcNAc(b1-2)Man(a1-3)[Gal(b1-4)GlcNAc(b1-3)Gal(b1-4)GlcNAc(b1-3)Gal(b1-4)GlcNAc(b1-2)Man(a1-6)]Man(b1-4)GlcNAc(b1-4)GlcNAc
Method in brief: as §1

[14] = biological target: Gal(b1-4)GlcNAc(b1-3)Gal(b1-4)GlcNAc(b1-3)Gal(b1-4)GlcNAc(b1-2)Man(a1-3)[Gal(b1-4)GlcNAc(b1-3)Gal(b1-4)GlcNAc(b1-3)Gal(b1-4)GlcNAc(b1-2)Man(a1-6)]Man(b1-4)GlcNAc(b1-4)[Fuc(a1-6)]GlcNAc
Method in brief: as §1

[15] = biological target: Gal(b1-4)GlcNAc(b1-3)Gal(b1-4)GlcNAc(b1-3)Gal(b1-4)GlcNAc(b1-2)[Gal(b1-4)GlcNAc(b1-3)Gal(b1-4)GlcNAc(b1-3)Gal(b1-4)GlcNAc(b1-6)]Man(a1-6)[Gal(b1-4)GlcNAc(b1-3)Gal(b1-4)GlcNAc(b1-3)Gal(b1-4)GlcNAc(b1-2)Man(a1-3)]Man(b1-4)GlcNAc(b1-4)[Fuc(a1-6)]GlcNAc
Method in brief: as §1

[16] = biological target: Gal(b1-4)GlcNAc(b1-3)Gal(b1-4)GlcNAc(b1-3)Gal(b1-4)GlcNAc(b1-3)Gal(b1-4)GlcNAc(b1-2)Man(a1-3)[Gal(b1-4)GlcNAc(b1-3)Gal(b1-4)GlcNAc(b1-3)Gal(b1-4)GlcNAc(b1-3)Gal(b1-4)GlcNAc(b1-2)Man(a1-6)]Man(b1-4)GlcNAc(b1-4)GlcNAc
Method in brief: as §1

[17] = biological target: Gal(b1-4)GlcNAc(b1-3)Gal(b1-4)GlcNAc(b1-3)Gal(b1-4)GlcNAc(b1-3)Gal(b1-4)GlcNAc(b1-2)Man(a1-3)[Gal(b1-4)GlcNAc(b1-3)Gal(b1-4)GlcNAc(b1-3)Gal(b1-4)GlcNAc(b1-3)Gal(b1-4)GlcNAc(b1-2)Man(a1-6)]Man(b1-4)GlcNAc(b1-4)[Fuc(a1-6)]GlcNAc
Method in brief: as §1

[18] = biological target: Gal(b1-4)GlcNAc(b1-3)Gal(b1-4)GlcNAc(b1-3)Gal(b1-4)GlcNAc(b1-3)Gal(b1-4)GlcNAc(b1-2)[Gal(b1-4)GlcNAc(b1-3)Gal(b1-4)GlcNAc(b1-3)Gal(b1-4)GlcNAc(b1-3)Gal(b1-4)GlcNAc(b1-6)]Man(a1-6)[Gal(b1-4)GlcNAc(b1-3)Gal(b1-4)GlcNAc(b1-3)Gal(b1-4)GlcNAc(b1-3)Gal(b1-4)GlcNAc(b1-2)Man(a1-3)]Man(b1-4)GlcNAc(b1-4)[Fuc(a1-6)]GlcNAc
Method in brief: as §1

[19] = biological target: Gal(b1-4)GlcNAc(b1-3)Gal(b1-4)GlcNAc(b1-3)Gal(b1-4)GlcNAc(b1-3)Gal(b1-4)GlcNAc(b1-3)Gal(b1-4)GlcNAc(b1-2)Man(a1-3)[Gal(b1-4)GlcNAc(b1-3)Gal(b1-4)GlcNAc(b1-3)Gal(b1-4)GlcNAc(b1-3)Gal(b1-4)GlcNAc(b1-3)Gal(b1-4)GlcNAc(b1-2)Man(a1-6)]Man(b1-4)GlcNAc(b1-4)GlcNAc
Method in brief: as §1

[20] = biological target: Gal(b1-4)GlcNAc(b1-3)Gal(b1-4)GlcNAc(b1-3)Gal(b1-4)GlcNAc(b1-3)Gal(b1-4)GlcNAc(b1-3)Gal(b1-4)GlcNAc(b1-2)Man(a1-3)[Gal(b1-4)GlcNAc(b1-3)Gal(b1-4)GlcNAc(b1-3)Gal(b1-4)GlcNAc(b1-3)Gal(b1-4)GlcNAc(b1-3)Gal(b1-4)GlcNAc(b1-2)Man(a1-6)]Man(b1-4)GlcNAc(b1-4)[Fuc(a1-6)]GlcNAc
Method in brief: as §1

[21] = biological target: Gal(b1-4)GlcNAc(b1-3)Gal(b1-4)GlcNAc(b1-3)Gal(b1-4)GlcNAc(b1-3)Gal(b1-4)GlcNAc(b1-3)Gal(b1-4)GlcNAc(b1-2)[Gal(b1-4)GlcNAc(b1-3)Gal(b1-4)GlcNAc(b1-3)Gal(b1-4)GlcNAc(b1-3)Gal(b1-4)GlcNAc(b1-3)Gal(b1-4)GlcNAc(b1-6)]Man(a1-6)[Gal(b1-4)GlcNAc(b1-3)Gal(b1-4)GlcNAc(b1-3)Gal(b1-4)GlcNAc(b1-3)Gal(b1-4)GlcNAc(b1-3)Gal(b1-4)GlcNAc(b1-2)Man(a1-3)]Man(b1-4)GlcNAc(b1-4)[Fuc(a1-6)]GlcNAc
Method in brief: as §1

[22] = biological target: Gal(b1-4)GlcNAc(b1-3)Gal(b1-4)GlcNAc(b1-3)Gal(b1-4)GlcNAc(b1-3)Gal(b1-4)GlcNAc(b1-3)Gal(b1-4)GlcNAc(b1-3)Gal(b1-4)GlcNAc(b1-2)Man(a1-3)[Gal(b1-4)GlcNAc(b1-3)Gal(b1-4)GlcNAc(b1-3)Gal(b1-4)GlcNAc(b1-3)Gal(b1-4)GlcNAc(b1-3)Gal(b1-4)GlcNAc(b1-3)Gal(b1-4)GlcNAc(b1-2)Man(a1-6)]Man(b1-4)GlcNAc(b1-4)GlcNAc
Method in brief: as §1

[23] = biological target: Gal(b1-4)GlcNAc(b1-3)Gal(b1-4)GlcNAc(b1-3)GalNAc
Method in brief: as §1

B1: BTL (Bryothamnion triquetrum) (protein)
chain: ADPICGSSGYSCTTPAILTPKSPGSFPSGYSKVIVTGVGGSYSVYIHRPDGFKVYKASEGGCASFGSYSGGGNSEVGKYGSGGTVVAVACK
glycan array binding signal (z-score) [1]: 6.49
glycan array binding signal (z-score) [2]: -0.19
glycan array binding signal (z-score) [3]: 0.044
glycan array binding signal (z-score) [4]: -0.107
glycan array binding signal (z-score) [5]: -0.213
glycan array binding signal (z-score) [6]: -0.253
glycan array binding signal (z-score) [7]: -0.27
glycan array binding signal (z-score) [8]: -0.119
glycan array binding signal (z-score) [9]: 6.38
glycan array binding signal (z-score) [10]: -0.126
glycan array binding signal (z-score) [11]: 3.58
glycan array binding signal (z-score) [12]: -0.216
glycan array binding signal (z-score) [13]: -0.258
glycan array binding signal (z-score) [14]: 5.89
glycan array binding signal (z-score) [15]: 2.73
glycan array binding signal (z-score) [16]: 0.005
glycan array binding signal (z-score) [17]: 4.48
glycan array binding signal (z-score) [18]: 2.3
glycan array binding signal (z-score) [19]: -0.13
glycan array binding signal (z-score) [20]: 4.45
glycan array binding signal (z-score) [21]: 2.65
glycan array binding signal (z-score) [22]: -0.154
glycan array binding signal (z-score) [23]: -0.211
